In the supplement of paper PMC8728848:
Some of the results follow.

Experiments:
Assay in all cases: glycan array binding signal (z-score within array); higher = stronger binding
Settings in all cases: glycan notation: IUPAC condensed, linker removed
[1] = molecular target: Neu5Ac(a2-6)Gal(b1-4)GlcNAc(b1-3)Gal(b1-4)[Fuc(a1-3)]GlcNAc(b1-3)Gal(b1-4)[Fuc(a1-3)]GlcNAc
Summary of the method: (§1)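 Glycan array data were curated from 3228 arrays in the Consortium for Functional Glycomics database and kept only where the protein sequence was available. Glycan names were converted to IUPAC-condensed notation, and columns mapping to the same glycan were averaged. The binding signal is a within-array Z-score, averaged across arrays of the same protein sequence at different concentrations or buffers and across linkers. Negative Z-scores can be read as non-binding.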

[2] = molecular target: Neu5Ac(a2-6)Gal(b1-4)GlcNAc(b1-3)GalNAc
Summary of the method: as §1

[3] = molecular target: Neu5Ac(a2-6)Gal(b1-4)GlcNAc(b1-3)[Neu5Ac(a2-6)Gal(b1-4)GlcNAc(b1-6)]GalNAc
Summary of the method: as §1

[4] = molecular target: Neu5Ac(a2-6)Gal(b1-4)GlcNAc(b1-6)GalNAc
Summary of the method: as §1

[5] = molecular target: Neu5Ac(a2-6)Gal(b1-4)GlcNAc(b1-6)[Gal(b1-3)GlcNAc(b1-3)]Gal(b1-4)Glc
Summary of the method: as §1

[6] = molecular target: Neu5Ac(a2-6)Gal(b1-4)GlcNAc(b1-6)[Gal(b1-3)]GalNAc
Summary of the method: as §1

[7] = molecular target: Neu5Ac(a2-6)Gal(b1-4)GlcNAc6S
Summary of the method: as §1

[8] = molecular target: Neu5Ac(a2-6)GalNAc
Summary of the method: as §1

[9] = molecular target: Neu5Ac(a2-6)GalNAc(b1-4)GlcNAc
Summary of the method: as §1

[10] = molecular target: Neu5Ac(a2-6)GalNAc(b1-4)GlcNAc6S
Summary of the method: as §1

[11] = molecular target: Neu5Ac(a2-6)GlcNAc(b1-4)GlcNAc
Summary of the method: as §1

[12] = molecular target: Neu5Ac(a2-6)GlcNAc(b1-4)GlcNAc(b1-4)GlcNAc
Summary of the method: as §1

[13] = molecular target: Neu5Ac(a2-8)Neu5Ac
Summary of the method: as §1

[14] = molecular target: Neu5Ac(a2-8)Neu5Ac(a2-3)Gal(b1-3)GalNAc(b1-4)[Neu5Ac(a2-3)]Gal(b1-4)Glc
Summary of the method: as §1

[15] = molecular target: Neu5Ac(a2-8)Neu5Ac(a2-3)Gal(b1-3)GalNAc(b1-4)[Neu5Ac(a2-8)Neu5Ac(a2-3)]Gal(b1-4)Glc
Summary of the method: as §1

[16] = molecular target: Neu5Ac(a2-8)Neu5Ac(a2-3)Gal(b1-4)Glc
Summary of the method: as §1

[17] = molecular target: Neu5Ac(a2-8)Neu5Ac(a2-3)Gal(b1-4)GlcNAc
Summary of the method: as §1

[18] = molecular target: Neu5Ac(a2-8)Neu5Ac(a2-3)[Gal(b1-3)GalNAc(b1-4)]Gal(b1-4)Glc
Summary of the method: as §1

[19] = molecular target: Neu5Ac(a2-8)Neu5Ac(a2-3)[GalNAc(b1-4)]Gal(b1-4)Glc
Summary of the method: as §1

[20] = molecular target: Neu5Ac(a2-8)Neu5Ac(a2-8)Neu5Ac
Summary of the method: as §1

[21] = molecular target: Neu5Ac(a2-8)Neu5Ac(a2-8)Neu5Ac(a2-3)Gal(b1-4)Glc
Summary of the method: as §1

[22] = molecular target: Neu5Ac(a2-8)Neu5Ac(a2-8)Neu5Ac(a2-3)[Gal(b1-3)GalNAc(b1-4)]Gal(b1-4)Glc
Summary of the method: as §1

[23] = molecular target: Neu5Ac(a2-8)Neu5Ac(a2-8)Neu5Ac(a2-3)[GalNAc(b1-4)]Gal(b1-4)Glc
Summary of the method: as §1

[24] = molecular target: Neu5Ac(a2-8)Neu5Ac(a2-8)Neu5Ac(a2-8)Neu5Ac(a2-3)[GalNAc(b1-4)]Gal(b1-4)Glc
Summary of the method: as §1

[25] = molecular target: Neu5Ac(a2-8)Neu5Gc(a2-3)Gal(b1-4)GlcNAc
Summary of the method: as §1

[26] = molecular target: Neu5Ac(b1-6)GalNAc
Summary of the method: as §1

[27] = molecular target: Neu5Ac(b2-6)Gal(b1-4)GlcNAc
Summary of the method: as §1

[28] = molecular target: Neu5Ac(b2-6)GalNAc
Summary of the method: as §1

[29] = molecular target: Neu5Ac9Ac(a2-3)Gal(b1-3)GlcNAc
Summary of the method: as §1

[30] = molecular target: Neu5Ac9Ac(a2-3)Gal(b1-4)GlcNAc
Summary of the method: as §1

[31] = molecular target: Neu5Ac9Ac(a2-6)Gal(b1-4)GlcNAc
Summary of the method: as §1

[32] = molecular target: Neu5Gc(a2-3)Gal(b1-3)GlcNAc
Summary of the method: as §1

[33] = molecular target: Neu5Gc(a2-3)Gal(b1-3)[Fuc(a1-4)]GlcNAc
Summary of the method: as §1

[34] = molecular target: Neu5Gc(a2-3)Gal(b1-4)Glc
Summary of the method: as §1

[35] = molecular target: Neu5Gc(a2-3)Gal(b1-4)GlcNAc
Summary of the method: as §1

[36] = molecular target: Neu5Gc(a2-3)Gal(b1-4)GlcNAc(b1-3)Gal(b1-4)GlcNAc(b1-2)Man(a1-3)[Neu5Gc(a2-3)Gal(b1-4)GlcNAc(b1-3)Gal(b1-4)GlcNAc(b1-2)Man(a1-6)]Man(b1-4)GlcNAc(b1-4)GlcNAc
Summary of the method: as §1

[37] = molecular target: Neu5Gc(a2-3)Gal(b1-4)[Fuc(a1-3)]GlcNAc
Summary of the method: as §1

[38] = molecular target: Neu5Gc(a2-6)Gal(b1-4)GlcNAc
Summary of the method: as §1

[39] = molecular target: Neu5Gc(a2-6)GalNAc
Summary of the method: as §1

[40] = molecular target: Neu5Gc(a2-8)Neu5Ac(a2-3)Gal(b1-4)GlcNAc
Summary of the method: as §1

[41] = molecular target: Neu5Gc(a2-8)Neu5Gc(a2-3)Gal(b1-4)GlcNAc
Summary of the method: as §1

[42] = molecular target: Neu5Gc(a2-8)Neu5Gc(a2-3)Gal(b1-4)GlcNAc(b1-3)Gal(b1-4)GlcNAc
Summary of the method: as §1

[43] = molecular target: Neu5Gc(a2-8)Neu5Gc(a2-6)Gal(b1-4)GlcNAc
Summary of the method: as §1

[44] = molecular target: Neu5Gc(b2-6)Gal(b1-4)GlcNAc
Summary of the method: as §1

B1: HPA (Helix pomatia), Q2F1K8 (protein)
chain: MQAFYSGLLLLCVVAFAAAQRVQSGKIDCGNDAGWAKVPSDDPGRDNTRELAKNITFASPYCRPPVVLLSITQLDVEQSQNLRVIARLYSVSPTGFKASCYTWHNTKVYSMSISWISIENY
[1]
  glycan array binding signal (z-score): 0.025
[2]
  glycan array binding signal (z-score): 0.212
[3]
  glycan array binding signal (z-score): -0.378
[4]
  glycan array binding signal (z-score): -0.048
[5]
  glycan array binding signal (z-score): -0.287
[6]
  glycan array binding signal (z-score): 0.096
[7]
  glycan array binding signal (z-score): -0.25
[8]
  glycan array binding signal (z-score): -0.29
[9]
  glycan array binding signal (z-score): -0.317
[10]
  glycan array binding signal (z-score): -0.275
[11]
  glycan array binding signal (z-score): -0.359
[12]
  glycan array binding signal (z-score): -0.317
[13]
  glycan array binding signal (z-score): -0.049
[14]
  glycan array binding signal (z-score): -0.419
[15]
  glycan array binding signal (z-score): -0.278
[16]
  glycan array binding signal (z-score): -0.365
[17]
  glycan array binding signal (z-score): -0.323
[18]
  glycan array binding signal (z-score): -0.115
[19]
  glycan array binding signal (z-score): 0.211
[20]
  glycan array binding signal (z-score): -0.292
[21]
  glycan array binding signal (z-score): -0.323
[22]
  glycan array binding signal (z-score): 0.091
[23]
  glycan array binding signal (z-score): 0.209
[24]
  glycan array binding signal (z-score): 0.038
[25]
  glycan array binding signal (z-score): -0.301
[26]
  glycan array binding signal (z-score): -0.304
[27]
  glycan array binding signal (z-score): -0.186
[28]
  glycan array binding signal (z-score): -0.411
[29]
  glycan array binding signal (z-score): -0.411
[30]
  glycan array binding signal (z-score): -0.237
[31]
  glycan array binding signal (z-score): -0.24
[32]
  glycan array binding signal (z-score): -0.196
[33]
  glycan array binding signal (z-score): -0.234
[34]
  glycan array binding signal (z-score): -0.112
[35]
  glycan array binding signal (z-score): -0.191
[36]
  glycan array binding signal (z-score): -0.085
[37]
  glycan array binding signal (z-score): -0.212
[38]
  glycan array binding signal (z-score): -0.167
[39]
  glycan array binding signal (z-score): -0.334
[40]
  glycan array binding signal (z-score): -0.25
[41]
  glycan array binding signal (z-score): -0.34
[42]
  glycan array binding signal (z-score): -0.262
[43]
  glycan array binding signal (z-score): -0.288
[44]
  glycan array binding signal (z-score): -0.249
